Measured values from a collection of fitness landscapes (doi:10.1126/science.1257360).
Some of the results follow.

B1: PhoQ; a variant is named by its letters at X, in order, P23837 (parent)
chain: MKKLLRLFFPLSLRVRFLLATAAVVLVLSLAYGMVALIGYSVSFDKTTFRLLRGESNLFYTLAKWENNKLHVELPENIDKQSPTMTLIYDENGQLLWAQRDVPWLMKMIQPDWLKSNGFHEIEADVNDTSLLLSGDHSIQQQLQEVREDDDDAEMTHSVAVNVYPATSRMPKLTIVVVDTIPVELKSSYMVWSWFIYVLSANLLLVIPLLWVAAWWSLRPIEALAKEVRELEEHNRELLNPATTRELTSLVRNLNRLLKSERERYDKYRTTLTDLTHSLKTPLXXLQXXLRSLRSEKMSVSDAEPVMLEQISRISQQIGYYLHRASMRGGTLLSRELHPVAPLLDNLTSALNKVYQRKGVNISLDISPEISFVGEQNDFVEVMGNVLDNACKYCLEFVEISARQTDEHLYIVVEDDGPGIPLSKREVIFDRGQRVDTLRPGQGVGLAVAREITEQYEGKIVAGESMLGGARMEVIFGRQHSAPKDE

Variants of: B1
Assay: enrichment ratio after two sorts for PhoP signalling (ratio (wild type AVST 3.29)); higher = more functional
Settings: with PhoP (E. coli)

| Variant | enrichment ratio |
| --- | --- |
| GECT | 8.88 |
| WNMP | ≤ 0.25 |
| YASW | ≤ 0.25 |
| HSQH | ≤ 0.25 |
| DDKP | ≤ 0.25 |
| AFMQ | ≤ 0.25 |
| GQCS | 4.33 |
| FEQI | ≤ 0.25 |
| RHAT | ≤ 0.25 |
| WTLE | ≤ 0.25 |
| DKAK | ≤ 0.25 |
| PYKV | ≤ 0.25 |
| ACWK | ≤ 0.25 |
| FYWN | ≤ 0.25 |
| GPLC | ≤ 0.25 |
| VTGA | ≤ 0.25 |
| HVCW | ≤ 0.25 |
| QDKY | ≤ 0.25 |
| RHGN | ≤ 0.25 |
| IDAD | ≤ 0.25 |
| QNCN | ≤ 0.25 |
| NGWV | ≤ 0.25 |
| DTAS | ≤ 0.25 |
| VFEE | ≤ 0.25 |

| Variant | enrichment ratio |
| --- | --- |
| VKQN | ≤ 0.25 |
| HHGS | ≤ 0.25 |
| RSIP | ≤ 0.25 |
| NHLE | ≤ 0.25 |
| QQEV | ≤ 0.25 |
| FGVN | ≤ 0.25 |
| MLSR | ≤ 0.25 |
| HAKG | ≤ 0.25 |
| INIV | ≤ 0.25 |
| GRND | ≤ 0.25 |
| SYQC | ≤ 0.25 |
| STLM | 11.2 |
| WAYP | ≤ 0.25 |
| RRAD | ≤ 0.25 |
| REGL | ≤ 0.25 |
| REDL | ≤ 0.25 |
| KDHV | ≤ 0.25 |
| WFQS | ≤ 0.25 |
| TLYC | ≤ 0.25 |
| PEPN | ≤ 0.25 |
| HNNF | ≤ 0.25 |
| RVKQ | ≤ 0.25 |
| YEAN | ≤ 0.25 |
| DPWC | ≤ 0.25 |

| Variant | enrichment ratio |
| --- | --- |
| SFSS | ≤ 0.25 |
| KAGP | ≤ 0.25 |
| IDGW | ≤ 0.25 |
| ENMD | ≤ 0.25 |
| FSFW | ≤ 0.25 |
| TCVF | ≤ 0.25 |
| TFYD | ≤ 0.25 |
| SAHE | ≤ 0.25 |
| DVNQ | ≤ 0.25 |
| TGAC | 11.4 |
| MDQC | ≤ 0.25 |
| NANN | ≤ 0.25 |
| FTGG | ≤ 0.25 |
| YGWK | ≤ 0.25 |
| EDEA | ≤ 0.25 |
| KAHC | ≤ 0.25 |
| CAHL | ≤ 0.25 |
| KMRV | ≤ 0.25 |
| AFEI | ≤ 0.25 |
| SERA | ≤ 0.25 |
| LYWT | ≤ 0.25 |
| GTTD | ≤ 0.25 |
| NYHN | ≤ 0.25 |
| PNGQ | ≤ 0.25 |

| Variant | enrichment ratio |
| --- | --- |
| HFNV | ≤ 0.25 |
| VFKE | ≤ 0.25 |
| KEDH | ≤ 0.25 |
| YRHP | ≤ 0.25 |
| AQDV | ≤ 0.25 |
| GSRG | ≤ 0.25 |
| THAA | ≤ 0.25 |
| TCTF | 12.4 |
| VQHG | ≤ 0.25 |
| RGAM | ≤ 0.25 |
| GTYR | ≤ 0.25 |
| YTAH | ≤ 0.25 |
| PGGG | ≤ 0.25 |
| PGWN | ≤ 0.25 |
| AAMG | 9.84 |
| NAQP | ≤ 0.25 |
| YAVR | ≤ 0.25 |
| FIRW | ≤ 0.25 |
| NLTS | ≤ 0.25 |
| DNQW | ≤ 0.25 |
| WDNW | ≤ 0.25 |
| YEHT | ≤ 0.25 |
| KDGL | ≤ 0.25 |
| FCVW | ≤ 0.25 |

| Variant | enrichment ratio |
| --- | --- |
| HQCP | ≤ 0.25 |
| QPVR | ≤ 0.25 |
| PTII | ≤ 0.25 |
| QNKW | ≤ 0.25 |
| QSNT | ≤ 0.25 |
| NNRC | ≤ 0.25 |
| GNKW | ≤ 0.25 |
| WMFI | ≤ 0.25 |
| ERVV | ≤ 0.25 |
| FQTG | ≤ 0.25 |
| ISTI | 0.31 |
| RAVA | ≤ 0.25 |
| PIVE | ≤ 0.25 |
| DGPK | ≤ 0.25 |
| SLKY | ≤ 0.25 |
| YQNG | ≤ 0.25 |
| RHRM | ≤ 0.25 |
| HTSE | 4.07 |
| YSRF | ≤ 0.25 |
| SVRD | ≤ 0.25 |
| VPRQ | ≤ 0.25 |
| WPTM | ≤ 0.25 |
| TTSM | 14.8 |
| RLAV | ≤ 0.25 |

| Variant | enrichment ratio |
| --- | --- |
| WMKG | ≤ 0.25 |
| FWDI | ≤ 0.25 |
| TGSR | ≤ 0.25 |
| YDKP | ≤ 0.25 |
| QERR | ≤ 0.25 |
| VQSP | ≤ 0.25 |
| KINN | ≤ 0.25 |
| NVCS | ≤ 0.25 |
| WYSK | ≤ 0.25 |
| MACG | ≤ 0.25 |
| PQQC | ≤ 0.25 |
| LWSS | ≤ 0.25 |
| NKHY | ≤ 0.25 |
| HNHI | ≤ 0.25 |
| FWEM | ≤ 0.25 |
| ALMH | 2.13 |
| TDWT | 25.1 |
| DTFN | ≤ 0.25 |
| WEPI | ≤ 0.25 |
| RTTG | ≤ 0.25 |
| SVIW | ≤ 0.25 |
| IAAY | ≤ 0.25 |
| DWLS | ≤ 0.25 |
| RQHY | ≤ 0.25 |

| Variant | enrichment ratio |
| --- | --- |
| RTGI | ≤ 0.25 |
| MRRR | ≤ 0.25 |
| PRMF | ≤ 0.25 |
| MPCR | ≤ 0.25 |
| IAWR | ≤ 0.25 |
| NLQG | ≤ 0.25 |
| KFFA | ≤ 0.25 |
| GWTA | ≤ 0.25 |
| IKID | ≤ 0.25 |
| TCQN | 23 |
| YKCC | ≤ 0.25 |
| HNTT | ≤ 0.25 |
| YMVM | ≤ 0.25 |
| RVHA | ≤ 0.25 |
| SQHG | ≤ 0.25 |
| PYNA | ≤ 0.25 |
| WHLW | ≤ 0.25 |
| SFAE | ≤ 0.25 |
| LEHM | ≤ 0.25 |
| ICCE | ≤ 0.25 |
| WGFV | ≤ 0.25 |
| MMMM | ≤ 0.25 |
| KNHR | ≤ 0.25 |
| SPCT | ≤ 0.25 |

| Variant | enrichment ratio |
| --- | --- |
| SHLM | 19.3 |
| FDDY | ≤ 0.25 |
| YHFE | ≤ 0.25 |
| EGHS | ≤ 0.25 |
| NNHV | ≤ 0.25 |
| QMFM | ≤ 0.25 |
| LTSD | ≤ 0.25 |
| EDLH | ≤ 0.25 |
| RDTY | ≤ 0.25 |
| YLNH | ≤ 0.25 |
| KPGT | ≤ 0.25 |
| GSEK | ≤ 0.25 |
| NNGW | ≤ 0.25 |
| PLWY | ≤ 0.25 |
| FCLP | ≤ 0.25 |
| KPVL | ≤ 0.25 |
| FFPP | ≤ 0.25 |
| TRNI | ≤ 0.25 |
| YWTM | ≤ 0.25 |
| WCAH | ≤ 0.25 |
| WMLQ | ≤ 0.25 |
| VSPT | ≤ 0.25 |
| TTPE | ≤ 0.25 |
| RLCK | ≤ 0.25 |

| Variant | enrichment ratio |
| --- | --- |
| KNFT | ≤ 0.25 |
| GFGL | ≤ 0.25 |
| PWLQ | ≤ 0.25 |
| RPWH | ≤ 0.25 |
| DNPI | ≤ 0.25 |
| AAVP | ≤ 0.25 |
| YGFC | ≤ 0.25 |
| STWV | ≤ 0.25 |
| GAFN | ≤ 0.25 |
| GMAT | ≤ 0.25 |
| RWYW | ≤ 0.25 |
| LFNS | ≤ 0.25 |
| FTTL | 3.67 |
| EHLD | ≤ 0.25 |
| LGTE | ≤ 0.25 |
| DNEV | ≤ 0.25 |
| LYKF | ≤ 0.25 |
| DTNV | ≤ 0.25 |
| GIVR | 3.19 |
| KGKP | ≤ 0.25 |
| LSDM | ≤ 0.25 |
| DSLT | ≤ 0.25 |
| ICDH | ≤ 0.25 |
| KAFS | ≤ 0.25 |

| Variant | enrichment ratio |
| --- | --- |
| RDGD | ≤ 0.25 |
| SLRE | ≤ 0.25 |
| FMPN | ≤ 0.25 |
| DQDW | ≤ 0.25 |
| TATS | 19.8 |
| WTQR | ≤ 0.25 |
| TSRI | ≤ 0.25 |
| LCEF | ≤ 0.25 |
| PDDM | ≤ 0.25 |
| YTHM | ≤ 0.25 |
| PKLM | ≤ 0.25 |
| QRHM | ≤ 0.25 |
| SSNI | 7.29 |
| FPWI | ≤ 0.25 |
| HGQD | ≤ 0.25 |
| SLEE | ≤ 0.25 |
| IERM | ≤ 0.25 |
| SWMH | ≤ 0.25 |
| NLHG | ≤ 0.25 |
| TLNP | ≤ 0.25 |
| PVLA | ≤ 0.25 |
| YHGP | ≤ 0.25 |
| LHDA | ≤ 0.25 |
| EGAD | ≤ 0.25 |

| Variant | enrichment ratio |
| --- | --- |
| KPCG | ≤ 0.25 |
| RKYP | ≤ 0.25 |
| QAGL | 4.95 |
| NFKT | ≤ 0.25 |
| VASY | ≤ 0.25 |
| GRRE | ≤ 0.25 |
| TPGL | ≤ 0.25 |
| MQLR | ≤ 0.25 |
| LAKA | ≤ 0.25 |
| ARYM | ≤ 0.25 |
| QLRF | ≤ 0.25 |
| HSAL | ≤ 0.25 |
| RWPL | ≤ 0.25 |
| DGNG | ≤ 0.25 |
| PEDK | ≤ 0.25 |
| VAIL | ≤ 0.25 |
| VAWI | ≤ 0.25 |
| PAYQ | ≤ 0.25 |
| HGHH | ≤ 0.25 |
| EQPG | ≤ 0.25 |
| EACH | 2.01 |
| LSIL | ≤ 0.25 |
| YIIS | ≤ 0.25 |
| QVYV | ≤ 0.25 |

| Variant | enrichment ratio |
| --- | --- |
| NSIF | ≤ 0.25 |
| FKWP | ≤ 0.25 |
| DTGK | ≤ 0.25 |
| LQKN | ≤ 0.25 |
| LRKF | ≤ 0.25 |
| VKQC | ≤ 0.25 |
| SHMD | ≤ 0.25 |
| MYGV | ≤ 0.25 |
| RRHF | ≤ 0.25 |
| EYEN | ≤ 0.25 |
| DTGC | ≤ 0.25 |
| GQTT | ≤ 0.25 |
| TGLS | 14.9 |
| HHFE | ≤ 0.25 |
| IMLS | ≤ 0.25 |
| FEEQ | ≤ 0.25 |
| YECQ | 30.7 |
| VVMM | ≤ 0.25 |
| FWYC | ≤ 0.25 |
| DRSP | ≤ 0.25 |
| RYRH | ≤ 0.25 |
| TGCP | ≤ 0.25 |
| LYWI | ≤ 0.25 |
| LNIE | ≤ 0.25 |

| Variant | enrichment ratio |
| --- | --- |
| KYYF | ≤ 0.25 |
| SAAA | 2.1 |
| VPPT | ≤ 0.25 |
| LKGE | ≤ 0.25 |
| QTSV | ≤ 0.25 |
| FLKA | ≤ 0.25 |
| HYNN | ≤ 0.25 |
| EVQR | ≤ 0.25 |
| SQNQ | 6.74 |
| EDRI | ≤ 0.25 |
| ANIA | ≤ 0.25 |
| QSSA | 4.92 |
| FQIF | ≤ 0.25 |
| HFTK | ≤ 0.25 |
| VTQR | ≤ 0.25 |
| DSAR | ≤ 0.25 |
| PLGQ | ≤ 0.25 |
| SETS | 12 |
